Over roughly 33,000 sequences, “E-score (-0.5 to 0.5)” has its median near -0.053; the highest 2% begin near 0.37. The list shows a part of the results.
biological target: Hap1 (UniProt P0CE41); experiment: PBM E-score (8-mer binding enrichment) (E-score (-0.5 to 0.5)); higher = stronger / more preferred TF binding; most listed sequences are background and not binding sites; details: protein concentration: 200 nM; construct: GST-DNA-binding domain
Method in brief: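 Masliner-normalised scans of fluorescent anti-GST signal were the basis for scoring. That signal came from GST-tagged yeast transcription factors applied at about 100-200 nM to double-stranded universal all-10-mer Agilent arrays on fresh or once-stripped slides. Each ungapped eight-base word, pooled with its reverse complement, received an E-score from the Universal PBM Analysis Suite.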

Sequence of UniProt P0CE41 (P0CE41 whole entry, the tested form may be a part): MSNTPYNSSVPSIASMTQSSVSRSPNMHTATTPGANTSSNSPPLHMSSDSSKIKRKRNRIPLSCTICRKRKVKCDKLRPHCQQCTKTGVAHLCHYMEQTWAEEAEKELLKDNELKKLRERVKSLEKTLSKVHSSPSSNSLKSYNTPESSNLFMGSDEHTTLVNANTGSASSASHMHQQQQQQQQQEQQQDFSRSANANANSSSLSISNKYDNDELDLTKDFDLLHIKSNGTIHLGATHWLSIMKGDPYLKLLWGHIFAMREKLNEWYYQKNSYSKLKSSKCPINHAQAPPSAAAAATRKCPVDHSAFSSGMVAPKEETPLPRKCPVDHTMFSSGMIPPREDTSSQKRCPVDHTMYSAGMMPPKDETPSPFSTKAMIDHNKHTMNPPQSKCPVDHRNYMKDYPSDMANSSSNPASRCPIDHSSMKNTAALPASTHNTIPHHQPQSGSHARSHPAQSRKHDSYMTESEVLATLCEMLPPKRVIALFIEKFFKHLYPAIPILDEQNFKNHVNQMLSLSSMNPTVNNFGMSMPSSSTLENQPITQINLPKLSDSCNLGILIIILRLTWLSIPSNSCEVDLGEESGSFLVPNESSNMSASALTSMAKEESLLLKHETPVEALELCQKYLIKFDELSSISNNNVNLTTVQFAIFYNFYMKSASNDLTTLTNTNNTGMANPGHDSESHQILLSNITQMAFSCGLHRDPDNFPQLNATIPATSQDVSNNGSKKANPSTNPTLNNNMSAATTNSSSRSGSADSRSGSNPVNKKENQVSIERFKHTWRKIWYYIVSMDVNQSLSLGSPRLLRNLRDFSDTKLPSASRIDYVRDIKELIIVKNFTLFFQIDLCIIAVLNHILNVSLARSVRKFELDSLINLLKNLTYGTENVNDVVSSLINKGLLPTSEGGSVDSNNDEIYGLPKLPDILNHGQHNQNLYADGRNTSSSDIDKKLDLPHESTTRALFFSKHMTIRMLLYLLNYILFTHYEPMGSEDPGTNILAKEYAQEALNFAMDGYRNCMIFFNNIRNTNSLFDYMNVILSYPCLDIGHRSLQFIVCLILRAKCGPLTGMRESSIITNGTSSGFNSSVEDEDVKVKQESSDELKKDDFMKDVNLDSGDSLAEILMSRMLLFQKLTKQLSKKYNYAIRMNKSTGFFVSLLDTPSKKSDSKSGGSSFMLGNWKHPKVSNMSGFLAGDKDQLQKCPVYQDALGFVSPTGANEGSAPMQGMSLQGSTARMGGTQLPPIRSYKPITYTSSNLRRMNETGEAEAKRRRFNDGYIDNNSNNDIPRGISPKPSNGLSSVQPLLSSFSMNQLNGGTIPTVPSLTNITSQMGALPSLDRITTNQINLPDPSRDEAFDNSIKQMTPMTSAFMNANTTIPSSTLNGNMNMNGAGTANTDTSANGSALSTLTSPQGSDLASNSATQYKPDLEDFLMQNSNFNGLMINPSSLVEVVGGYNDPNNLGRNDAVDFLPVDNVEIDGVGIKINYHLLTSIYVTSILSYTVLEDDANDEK

| Sequence | PBM E-score |
| --- | --- |
| CAGATGTC | 0.0461 |
| AACGGAGC | 0.241 |
| GGCTGCCA | -0.0802 |
| CCCCGTAC | 0.0387 |
| GACAATGC | 0.024 |
| GAGATCCA | -0.0353 |
| CGCGATCC | 0.0148 |
| GTCAATTA | -0.16 |
| ACGGTGCG | 0.0448 |
| ACACGAAA | -0.0401 |
| TAGTTATA | -0.0796 |
| GGCAACAA | -0.111 |
| AGAGATTC | -0.039 |
| AATTCCGA | 0.43 |
| AGATCTGG | -0.187 |
| CATCTTCG | -0.0503 |
| GTCACTGA | -0.065 |
| ATTCTGAG | -0.0623 |
| TATTGTCA | -0.161 |
| ATTTCACA | -0.131 |
| ACATGCCT | -0.141 |
| ACCGCCGA | 0.36 |
| CTTACAAA | -0.0557 |
| GTGGAAAA | -0.12 |

| Sequence | PBM E-score |
| --- | --- |
| GTGCGAAA | -0.043 |
| AGACCACG | -0.178 |
| AAACAAGA | -0.0194 |
| AGGACTTC | -0.152 |
| AGCAGCGC | -0.1 |
| GGTGAGTA | -0.186 |
| AGTAGCAA | -0.0345 |
| CAAAACCC | 0.219 |
| CGCGCCAC | 0.0206 |
| AGACCCAA | -0.144 |
| CCAGCGTC | 0.0197 |
| CACTCATC | -0.0533 |
| AACGCCTA | -0.0611 |
| ACACACTC | -0.236 |
| CATGAATA | -0.293 |
| ATCACACA | -0.207 |
| CATCGACA | -0.0278 |
| AAGTGTGG | 0.044 |
| AGTCCTCG | -0.0664 |
| AGGCCTGC | -0.0481 |
| GGAGCGGA | 0.218 |
| CGGGAACG | 0.226 |
| ACCCCGAG | 0.348 |
| ACTGACGG | 0.139 |

| Sequence | PBM E-score |
| --- | --- |
| ACTCCCTC | -0.226 |
| ACCATTGG | -0.179 |
| GACGCATA | 0.1 |
| ACGTCTAC | -0.179 |
| CCAGAGCG | -0.141 |
| AAATCCCC | 0.169 |
| CTAACTAA | -0.175 |
| AGCCTGAA | -0.0194 |
| ATGCTCGC | -0.242 |
| AACTTGGC | -0.0943 |
| GTGGGCAA | -0.118 |
| AAGTCGCC | 0.0232 |
| CAGGCAAA | -0.0524 |
| GCGCTAAC | 0.0252 |
| CCTGGACC | -0.257 |
| ACCCCACG | 0.0257 |
| ATCGGAAC | 0.318 |
| ACTCCGAC | 0.353 |
| ATGCTAAC | -0.112 |
| CCACCTAA | -0.224 |
| AGACCGCT | 0.0523 |
| CTCAGAAG | -0.188 |
| ACGGGTGG | 0.16 |
| CATAACAA | 0.00786 |

| Sequence | PBM E-score |
| --- | --- |
| AAAATTGC | 0.00503 |
| CATCGAGA | -0.0895 |
| CAATGGTG | -0.314 |
| ATGGTTCC | 0.0504 |
| CGACCGAG | 0.371 |
| GTGGGAGA | -0.15 |
| CAACTTGC | -0.169 |
| CGCGCACA | 0.0274 |
| AAAATGTC | 0.0263 |
| AGCTCTGG | -0.0783 |
| GACGTACA | 0.0308 |
| GTTTCAGA | -0.131 |
| ACCCAAGA | -0.184 |
| AGCGAGCC | 0.073 |
| AGAGAGTC | -0.252 |
| CCGTCGGC | 0.33 |
| CAACCCGG | 0.182 |
| TGATCAAA | -0.18 |
| ATAGTAAA | -0.076 |
| GAAATAGC | 0.131 |
| AACCGCCA | -0.0639 |
| CCAGTCAC | -0.132 |

From the supplement of paper PMC3334620
